Source: the RNAGym collection of RNA variant scans (doi:10.1093/nar/gkz1192)
The source gives no read counts; variants with many changes may rest on few reads.

B1: CPEB3 Ribozyme (parent)
chain: UAACAGGGGGCCACAGCAGAAGCGUUCACGUCGCAGCCCCUGUCAGAUUCUGGUGAAUCUGCGAAUUCUGCUGUAUAUCUC

Variants of: B1
Experiment: self-cleavage, relative activity (ratio to wild type); higher = more cleavage; in vitro, sequencing
In short: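 Relative activity compares each variant's cleaved/total read fraction with that of the unmutated ribozyme. To get these fractions, barcoded CPEB3 ribozyme libraries from rounds of error-prone PCR were transcribed with T7 RNA polymerase for 5 hours at 37°C and then given 15 min of DNase I treatment before EDTA was added. The RNAs were reverse transcribed with template switching and sequenced on Illumina, and DNA sequencing linked barcodes to variants. A minimum of 5 reads applied, and three batches were averaged.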
Work on UAACAGGGGGCCAUUGCAGAAGCGUUCACGUUGCAGCCCCUGUCAGAUUCUGGUGAAUCUGCGAAUCCUGCUGUAUAUCUC [C14U A15U C32U U67C] yielded a self-cleavage of 0.08.
UAACAGGGGGCCAUAGCGGAAGCGUUCACGUCGCAGCCCCUGUCAGUUUCUGGUGGAUCUGCGAAUUCUGCUGUAUAUCUC [C14U A18G A47U A56G] gave a self-cleavage of 0.36.
For UAACAGGGGGCCAUAGCGGAAGCGUUCACGUCGCAGCCCCUGUCAGAUUCUGGUGACUCUGCGAAUUCUGUUGUAUAUCUC [C14U A18G A57C C71U], the self-cleavage was 0.17.
With UAACAGGGGGCCAUAGCGGAAGCGUUCACGUCGCAGCCCCUGUCAGAUUCUGGUGAUUCUGCGAAUUCUGCUGUAUAUCUC [C14U A18G A57U] the self-cleavage was 0.22.
Work on UAACAGGGGGCCAUAGCUGAAGCGUACACGUCGCGGCCCCUGUCAGGUUCUGGUGAAUCUGCGAAUUCUGCCGCAUAUCUC [C14U A18U U26A A35G A47G U72C U74C] yielded a self-cleavage of 0.34.
In the case of UAACAGGGGGCCAUAGCUGAAGCGUACACGUCGCAGCCCCUGUCAGAUUCUGGUGAAUCUGCGAAUUCUGCUGUACAUCUC [C14U A18U U26A U76C], the self-cleavage is reported as 0.24.
For UAACAGGGGGCCAUAGCAGGAGCGUUCACGUCGCGGCCCCUGUCAGAAUCUGGUGAAUCUGUGAGUUCUGCUGUAUAUCUC [C14U A20G A35G U48A C62U A65G], the self-cleavage was 0.08.
With UAACAGGGGGCCAUAGCAGGAGCGUUCACGUCGCAGCCCCUGUCGGUUUCUGGUGAAUCUGCGAAUUCAGCUGUAUAUCUC [C14U A20G A45G A47U U69A] the self-cleavage was 0.05.
Work on UAACAGGGGGCCAUAGCAGGAGCGUUCACGUCGCAGCCCCUGUCGGAUUCUGGCGAAUCUGCGAAUCCUGCUGUAUAUCUC [C14U A20G A45G U54C U67C] yielded a self-cleavage of 0.96.
With UAACAGGGGGCCAUAGCAGGAGCGUUCACGUCGCAGCCCCUGUCAGGUUCUGGUGAAUCUGCGAAUUCCGCUGUAUAUCUC [C14U A20G A47G U69C] the self-cleavage was 0.22.
In the case of UAACAGGGGGCCAUAGCAGGAGCGUUCACGUCGCAGCCCCUGUCAGAUUCUGGUGAAUCUGCGAGCUCUGCUGUAUAUCUC [C14U A20G A65G U66C], the self-cleavage is reported as 0.14.
UAACAGGGGGCCAUAGCAGGAGCGUUUACGUCGCAGCCCCUGUCAGAUUCUGGUGGAUCUGCGAAUCCUGCUGUAUAUCUC [C14U A20G C27U A56G U67C] gave a self-cleavage of 0.07.
Work on UAACAGGGGGCCAUAGCAGGAGCGUUCACGUCGCAGCCCCUGUCAGAUUCUGGUGAAUCUGCGAAUUAUCCUGUAUAUCUC [C14U A20G C68A G70C] yielded a self-cleavage of 0.19.
Work on UAACAGGGGGCCAUAGCAGGAGCGUCCACGUCGCAGCUCCUGUCAGAUUCUGGUGAAUCUGCGAAUUCUGCUGUAUAUCUC [C14U A20G U26C C38U] yielded a self-cleavage of 0.05.
For UAACAGGGGGCCAUAGCAGGAGCGUCCACGUCGCAGCCCCUGUCAGAUUCUGGUGAAACUGCGAAUUCCGCUGUAUAUCUC [C14U A20G U26C U58A U69C], the self-cleavage was 0.14.
In the case of UAACAGGGGGCCAUAGCAGGAGCGUUCACGUCGCAGCCCCGGUCAGAUCCUGGUGAAUCUGCGAUUUCUGCUGAAUAUCUC [C14U A20G U41G U49C A65U U74A], the self-cleavage is reported as 0.14.
Work on UAACAGGGGGCCAUAGCAGGAGCGUUCACGUCGCAGCCCCUGUCAGAUUCUGGUGAAUCUGCGAAUUCAGCUGUAUAUCUC [C14U A20G U69A] yielded a self-cleavage of 0.51.
UAACAGGGGGCCAUAGCAGUAGCGUCCACGUCGCAGCCCCUGUCAGAUUCUGGUGAGUCUGCGAAUCCUGCUGUAUAUCUC [C14U A20U U26C A57G U67C] showed a self-cleavage of 0.06.
In the case of UAACAGGGGGCCAUAGCAGAGGCGUUCACGUCGCAGCCCCUGUCAGAUUCUGGUGAAUCUGCGAGUUCUGCUGUAUAUCUC [C14U A21G A65G], the self-cleavage is reported as 0.28.
UAACAGGGGGCCAUAGCAGAGGCGUUCACGUCGCAGCCCCUGUCAGAUUGUGGCGAAUCUGCGAAUUCUGCUGUAUAUCUC [C14U A21G C50G U54C] showed a self-cleavage of 0.12.
Work on UAACAGGGGGCCAUAGCAGAAGCGUUCGCGUCGCAGCCCCUGUCGGAUUCUGGUGAAUCUGCGAAUUCUGCUGUAUACAUC [C14U A28G A45G U78C C79A] yielded a self-cleavage of 0.62.
Work on UAACAGGGGGCCAUAGCAGAAGCGUUCGCGUCGCAGCCCCUGUCAGGUUCUGGUGAAUCUGCGAAUUCUGCUGUAAAUCUC [C14U A28G A47G U76A] yielded a self-cleavage of 0.93.
Work on UAACAGGGGGCCAUAGCAGAAGCGUUCGCGUCGCAGCCCCCGUCAGAUUCUGGUGAGUCUGUGAAUUCUGCUGUAUAUCUC [C14U A28G U41C A57G C62U] yielded a self-cleavage of 0.12.
Variant UAACAGGGGGCCAUAGCAGAAGCGUUCUCGUCGCAGCCCCUGUCAGAUUCUGGUGAAUCUGCGAAUUCUGCUGUAUGUCUC [C14U A28U A77G] has a self-cleavage of 1.05.
UAACAGGGGGCCAUAGCAGAAGCGUUCUCGUCGCAGCCCCUGUCAGAUUCUGGUGAAUCUGCAAAUCCUGCUGUAUAUCUC [C14U A28U G63A U67C] gave a self-cleavage of 0.17.
UAACAGGGGGCCAUAGCAGAAGCGUUCUCGUCGCAGCCCCUGACAGAUUCUGGUGAAUCUGCGAAUUCUGCUGUAUAUCUC [C14U A28U U43A] gave a self-cleavage of 1.09.
Work on UAACAGGGGGCCAUAGCAGAAGCGUUCUCGUCGCAGCCCCUGUCAGAUCCUGGUGAAUCUGCGAAUGCUGCAGUAUAUCUC [C14U A28U U49C U67G U72A] yielded a self-cleavage of 0.08.
For UAACAGGGGGCCAUAGCAGAAGCGUUCACGUCGCGGCCCCUGUCAGAUUCUGGUGAAUCUGCGAAUUCUUCUGUAUAUCUC [C14U A35G G70U], the self-cleavage was 1.15.
Work on UAACAGGGGGCCAUAGCAGAAGCGUUCACGUCGCGGCCCCCGUCAGAUUCUGGUGAAUCUGCGGAUUCUGCUGUAUAUCUC [C14U A35G U41C A64G] yielded a self-cleavage of 1.3.
With UAACAGGGGGCCAUAGCAGAAGCGUUCACGUCGCGGCCCCUGUCAGAUUCUGGUGAAUCUGCGAAUUCUGCUGUACAUCUC [C14U A35G U76C] the self-cleavage was 1.26.
Work on UAACAGGGGGCCAUAGCAGAAGCGUUCACGUCGCUGCCCCUGUCAGAUUCUGGUGAGUCUGCGAAUUCCGCUGUAUAUCUC [C14U A35U A57G U69C] yielded a self-cleavage of 0.32.
UAACAGGGGGCCAUAGCAGAAGCGUUCACGUCGCUGCCCCCGUCAGAUUCUGGUGAAUCUGCGAAUUCCGCUGUAUAUCUC [C14U A35U U41C U69C] showed a self-cleavage of 0.26.
UAACAGGGGGCCAUAGCAGAAGCGUUCACGUCGCUGCCCCUGUCAGAUUCAGGUGAAUCUGCGAAUUCUGCUGUAUAUCUC [C14U A35U U51A] gave a self-cleavage of 0.77.
Variant UAACAGGGGGCCAUAGCAGAAGCGUUCACGUCGCUGCCCCUGUCAGAUUCUGGUGAACCUGCGAAUUCCGCUGUAUAUCUC [C14U A35U U58C U69C] has a self-cleavage of 0.17.
